# Experimental data: the supplement of paper PMC8728848
# The other results are listed elsewhere or left out.
# B1: Tamarinin (protein)
# chain: CDDSARAGNIVVYWGQGGSDNSEGSLKEACKSGHYNMIVLQQLIVYDDGRDPDLNLGAHCSDCTKLEEQIKYCQNKDIKILLQIGQVVPTQEDVKDVTKNLSEYLLKNFFSGKSGPLGEVYLNGIDIASVPEGNNLKFDELVEALNDSSTERRIYLSASPLCVYPDYYLNKAIQTEKLDFLFVQFFYQNPCIYTEGNPENLFEAMKTWTKNVPESMIFMALPATPNLDGYIPPRVLNKEILPAVSEASNFAGVMIFDRYFDRFRKYSSKIK
# Columns and labels:
# Assay in all cases: glycan array binding signal (z-score within array); higher = stronger binding
# Details in all cases: glycan notation: IUPAC condensed, linker removed
# [1] = biological target: Neu5Ac(a2-3)Gal(b1-3)GalNAc
# In short: (§1)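 Negative Z-scores can be read as non-binding. The Z-score is calculated within each array and then averaged across arrays of one protein sequence at different concentrations or buffers and across linkers. Arrays, 3228 in all, were curated from the Consortium for Functional Glycomics database and kept only where the protein sequence was available.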
# [2] = biological target: Neu5Ac(a2-3)Gal(b1-3)GalNAc(b1-3)Gal(a1-4)Gal(b1-4)Glc
# In short: as §1
# [3] = biological target: Neu5Ac(a2-3)Gal(b1-3)GalNAc(b1-4)Gal(b1-4)Glc
# In short: as §1
# [4] = biological target: Neu5Ac(a2-3)Gal(b1-3)GalNAc(b1-4)[Neu5Ac(a2-3)]Gal(b1-4)Glc
# In short: as §1
# [5] = biological target: Neu5Ac(a2-3)Gal(b1-3)GalNAc(b1-4)[Neu5Ac(a2-8)Neu5Ac(a2-3)]Gal(b1-4)Glc
# In short: as §1
# [6] = biological target: Neu5Ac(a2-3)Gal(b1-3)GalNAc6S
# In short: as §1
# [7] = biological target: Neu5Ac(a2-3)Gal(b1-3)GlcNAc
# In short: as §1
# [8] = biological target: Neu5Ac(a2-3)Gal(b1-3)GlcNAc(b1-2)Man
# In short: as §1
# [9] = biological target: Neu5Ac(a2-3)Gal(b1-3)GlcNAc(b1-2)Man(a1-3)[GlcNAc(b1-4)][Neu5Ac(a2-3)Gal(b1-3)GlcNAc(b1-2)Man(a1-6)]Man(b1-4)GlcNAc(b1-4)GlcNAc
# In short: as §1
# [10] = biological target: Neu5Ac(a2-3)Gal(b1-3)GlcNAc(b1-2)Man(a1-3)[Neu5Ac(a2-3)Gal(b1-3)GlcNAc(b1-2)Man(a1-6)]Man(b1-4)GlcNAc(b1-4)GlcNAc
# In short: as §1
# [11] = biological target: Neu5Ac(a2-3)Gal(b1-3)GlcNAc(b1-2)[Neu5Ac(a2-3)Gal(b1-3)GlcNAc(b1-4)]Man(a1-6)[Neu5Ac(a2-3)Gal(b1-3)GlcNAc(b1-2)Man(a1-3)]Man(b1-4)GlcNAc(b1-4)GlcNAc
# In short: as §1
# [12] = biological target: Neu5Ac(a2-3)Gal(b1-3)GlcNAc(b1-3)Gal(b1-3)GlcNAc
# In short: as §1
# [13] = biological target: Neu5Ac(a2-3)Gal(b1-3)GlcNAc(b1-3)Gal(b1-4)GlcNAc
# In short: as §1
# [14] = biological target: Neu5Ac(a2-3)Gal(b1-3)GlcNAc(b1-3)GalNAc
# In short: as §1
# [15] = biological target: Neu5Ac(a2-3)Gal(b1-3)GlcNAc(b1-6)GalNAc
# In short: as §1
# [16] = biological target: Neu5Ac(a2-3)Gal(b1-3)GlcNAc6S
# In short: as §1
# [17] = biological target: Neu5Ac(a2-3)Gal(b1-3)[Fuc(a1-4)]GlcNAc
# In short: as §1
# [18] = biological target: Neu5Ac(a2-3)Gal(b1-3)[Fuc(a1-4)]GlcNAc(b1-3)Gal(b1-3)[Fuc(a1-4)]GlcNAc
# In short: as §1
# [19] = biological target: Neu5Ac(a2-3)Gal(b1-3)[Fuc(a1-4)]GlcNAc(b1-3)Gal(b1-4)[Fuc(a1-3)]GlcNAc
# In short: as §1
# [20] = biological target: Neu5Ac(a2-3)Gal(b1-3)[GlcNAc(b1-6)]GalNAc
# In short: as §1
# [21] = biological target: Neu5Ac(a2-3)Gal(b1-3)[Neu5Ac(a2-6)]GalNAc
# In short: as §1
# [22] = biological target: Neu5Ac(a2-3)Gal(b1-3)[Neu5Ac(a2-6)]GlcNAc(b1-3)[Fuc(a1-3)[Gal(b1-4)]GlcNAc(b1-6)]Gal(b1-4)Glc
# In short: as §1
# [23] = biological target: Neu5Ac(a2-3)Gal(b1-3)]Neu5Ac(a2-3)Gal(b1-4)]GlcNAc
# In short: as §1
# Neu5Ac(a2-3)Gal(b1-4)Glc = biological target: Neu5Ac(a2-3)Gal(b1-4)Glc
# In short: as §1
# [24] = biological target: Neu5Ac(a2-3)Gal(b1-4)GlcNAc
# In short: as §1
# [25] = biological target: Neu5Ac(a2-3)Gal(b1-4)GlcNAc(b1-2)Man
# In short: as §1
# [26] = biological target: Neu5Ac(a2-3)Gal(b1-4)GlcNAc(b1-2)Man(a1-3)[GlcNAc(b1-4)][Neu5Ac(a2-3)Gal(b1-4)GlcNAc(b1-2)Man(a1-6)]Man(b1-4)GlcNAc(b1-4)GlcNAc
# In short: as §1
# [27] = biological target: Neu5Ac(a2-3)Gal(b1-4)GlcNAc(b1-2)Man(a1-3)[Neu5Ac(a2-3)Gal(b1-4)GlcNAc(b1-2)Man(a1-6)]Man(b1-4)GlcNAc(b1-4)GlcNAc
# In short: as §1
# [28] = biological target: Neu5Ac(a2-3)Gal(b1-4)GlcNAc(b1-2)Man(a1-3)[Neu5Ac(a2-3)Gal(b1-4)GlcNAc(b1-2)Man(a1-6)]Man(b1-4)GlcNAc(b1-4)[Fuc(a1-6)]GlcNAc
# In short: as §1
# [29] = biological target: Neu5Ac(a2-3)Gal(b1-4)GlcNAc(b1-2)Man(a1-3)[Neu5Ac(a2-6)Gal(b1-4)GlcNAc(b1-2)Man(a1-6)]Man(b1-4)GlcNAc(b1-4)GlcNAc
# In short: as §1
# [30] = biological target: Neu5Ac(a2-3)Gal(b1-4)GlcNAc(b1-2)[Neu5Ac(a2-3)Gal(b1-4)GlcNAc(b1-4)]Man(a1-3)[GlcNAc(b1-4)][Neu5Ac(a2-3)Gal(b1-4)GlcNAc(b1-2)[Neu5Ac(a2-3)Gal(b1-4)GlcNAc(b1-6)]Man(a1-6)]Man(b1-4)GlcNAc(b1-4)GlcNAc
# In short: as §1
# [31] = biological target: Neu5Ac(a2-3)Gal(b1-4)GlcNAc(b1-2)[Neu5Ac(a2-3)Gal(b1-4)GlcNAc(b1-4)]Man(a1-3)[GlcNAc(b1-4)][Neu5Ac(a2-3)Gal(b1-4)GlcNAc(b1-4)Man(a1-6)]Man(b1-4)GlcNAc(b1-4)GlcNAc
# In short: as §1
# [32] = biological target: Neu5Ac(a2-3)Gal(b1-4)GlcNAc(b1-2)[Neu5Ac(a2-3)Gal(b1-4)GlcNAc(b1-6)]Man(a1-6)[Neu5Ac(a2-3)Gal(b1-4)GlcNAc(b1-2)Man(a1-3)][GlcNAc(b1-4)]Man(b1-4)GlcNAc(b1-4)GlcNAc
# In short: as §1
# [33] = biological target: Neu5Ac(a2-3)Gal(b1-4)GlcNAc(b1-3)Gal
# In short: as §1
# [34] = biological target: Neu5Ac(a2-3)Gal(b1-4)GlcNAc(b1-3)Gal(b1-3)GlcNAc
# In short: as §1
# [35] = biological target: Neu5Ac(a2-3)Gal(b1-4)GlcNAc(b1-3)Gal(b1-4)GlcNAc
# In short: as §1
# [36] = biological target: Neu5Ac(a2-3)Gal(b1-4)GlcNAc(b1-3)Gal(b1-4)GlcNAc(b1-2)Man(a1-3)[Neu5Ac(a2-3)Gal(b1-4)GlcNAc(b1-3)Gal(b1-4)GlcNAc(b1-2)Man(a1-6)]Man(b1-4)GlcNAc(b1-4)GlcNAc
# In short: as §1
binder,measurement,setting,value
B1,glycan array binding signal (z-score),[1],-0.03
same,glycan array binding signal (z-score),[2],-0.286
same,glycan array binding signal (z-score),[3],0.04
same,glycan array binding signal (z-score),[4],1.02
same,glycan array binding signal (z-score),[5],1.37
same,glycan array binding signal (z-score),[6],-0.272
same,glycan array binding signal (z-score),[7],-0.114
same,glycan array binding signal (z-score),[8],-0.361
same,glycan array binding signal (z-score),[9],-0.013
same,glycan array binding signal (z-score),[10],0.161
same,glycan array binding signal (z-score),[11],0.303
same,glycan array binding signal (z-score),[12],-0.373
same,glycan array binding signal (z-score),[13],-0.471
same,glycan array binding signal (z-score),[14],-0.063
same,glycan array binding signal (z-score),[15],-0.359
same,glycan array binding signal (z-score),[16],-0.297
same,glycan array binding signal (z-score),[17],-0.401
same,glycan array binding signal (z-score),[18],1.67
same,glycan array binding signal (z-score),[19],3.05
same,glycan array binding signal (z-score),[20],-0.268
same,glycan array binding signal (z-score),[21],2.07
same,glycan array binding signal (z-score),[22],-0.485
same,glycan array binding signal (z-score),[23],-0.353
same,glycan array binding signal (z-score),Neu5Ac(a2-3)Gal(b1-4)Glc,-0.022
same,glycan array binding signal (z-score),[24],-0.352
same,glycan array binding signal (z-score),[25],1.24
same,glycan array binding signal (z-score),[26],-0.344
same,glycan array binding signal (z-score),[27],-0.31
same,glycan array binding signal (z-score),[28],-0.374
same,glycan array binding signal (z-score),[29],-0.369
same,glycan array binding signal (z-score),[30],-0.293
same,glycan array binding signal (z-score),[31],-0.177
same,glycan array binding signal (z-score),[32],-0.424
same,glycan array binding signal (z-score),[33],-0.373
same,glycan array binding signal (z-score),[34],-0.51
same,glycan array binding signal (z-score),[35],-0.297
same,glycan array binding signal (z-score),[36],-0.342
